# Out of some 130,000 compounds screened, about 1,900 (1.5%) were called active. The shares of active, inactive and inconclusive entries below differ from those in the screen. The call rests on the fitted dose curve; in most records, active means well fitted cell-killing curve with a large enough effect; inconclusive means small, poorly fitted or top-dose-only effect; inactive means no such curve, though single readings can be large or run the other way. A potency beside an inconclusive call is a rough fit, not a confirmed value.
# Experiment: qHTS Screen for Compounds that Selectively Target Cancer Cells with p53 Mutations: Cytotoxicity of p53ts Cells at the Nonpermissive Temperature; further: nearly all actives have a fitted effect of over 55% in size
# Settings: H1299-p53A138V viability at 39C, ATP luminescence, 24 h; activity change, negative = cell killing: at 46.1 µM (top of the series)
# On the % scale 0 is the no-effect control and ±100 the full control effect; potency means the concentration at half of the fitted maximal effect; tags describe the fitted curve by direction and shape.
SMILES,Potency,"activity change, negative = cell killing"
Cn1c(N)c(C(=O)COC(=O)Cn2cc(C(F)(F)F)ccc2=O)c(=O)n(C)c1=O,inactive,
c1ccc(OCCSc2nnnn2C2CCCCC2)cc1,inactive,
COc1ccc(-c2nnc(SCC(=O)Nc3ccc(F)cc3)s2)cc1,"inconclusive: 15.8 µM [cytotoxic, partial curve, poor fit]",
O=c1c2sc3ccccc3c2n(Cc2ccccc2F)c(=O)n1CCc1ccccc1,"inconclusive: 25.1 µM [cytotoxic, single point]",
Cc1cc(N2CCN(C(c3ccccc3)c3ccc(Cl)cc3)CC2)n2ncnc2n1 (stereo not drawn),"inconclusive: 31.6 µM [cytotoxic, single point]",
CCCCNC(=O)c1c[nH]c2ccc(S(=O)(=O)Nc3ccc(OCC)cc3)cc2c1=O,"inconclusive: 20 µM [cytotoxic, single point]",
CCCNC(=O)c1cc(-c2ccc(OC)cc2)on1,"inconclusive: 7.94 µM [cytotoxic, partial curve]",
O=C(c1ccc2c(Cl)c3c(nc2c1)CCCC3)N1CCN(c2cccc(Cl)c2)CC1,"inconclusive: 1 µM [cytotoxic, partial curve]",
COc1ccc(NC(=O)C2=C(C)Nc3nc(SCc4ccccc4)nn3C2c2cc(OC)ccc2OC)cc1 (stereo not drawn),"inconclusive: 1.58 µM [cytotoxic, partial curve]",
COc1ccccc1CNC(=O)c1cccc(Nc2nc3ccccc3n3nnnc23)c1,"inconclusive: 12.6 µM [cytotoxic, partial curve, poor fit]",
Cc1cccc(-c2nc3scc(CCNC(=O)c4ccccc4Cl)n3n2)c1,inactive,
OC[C@H]1O[C@@H](n2cnc3c(NCc4ccccc4)ncnc32)[C@H](O)[C@@H]1O,active: 10 µM,
CSCCC(Nc1ncnc2ccc(Br)cc12)C(=O)O (stereo not drawn),inactive,
Cc1ccc(-n2ncc3c(NCCCc4ccccc4)ncnc32)cc1C,,inconclusive: -30.9% [cytotoxic]
Cc1ccc2nc(-c3cccnc3)oc2c1,"inconclusive: 12.6 µM [cytotoxic, partial curve]",
Cc1cc(C)cc(NC(=O)Cn2nnc(C(=O)Nc3cc(C)cc(C)c3)c2N)c1,"inconclusive: 31.6 µM [cytotoxic, single point]",
CCOC(=O)c1cc(-c2ccccc2)n(CCCC(=O)Nc2cccc(Cl)c2C)c1C,"inconclusive: 10 µM [cytotoxic, partial curve, poor fit]",
COc1cc(OC)cc(C(=O)Nc2c(C(=O)Nc3ccc(F)cc3)oc3ccccc23)c1,"inconclusive: 6.31 µM [cytotoxic, partial curve]",

# — PubChem BioAssay AID902 (National Center for Advancing Translational Sciences (NCATS), 2007)
